In publication PMC7501302:
Results are given in words; binding and its absence hold for the method and conditions named. In cells and extracts the contact can be indirect. Some binding calls cover weakened binding; strength is not graded here. For some of these results: Where a sequence is shown, tags or fusion partners need not be part of it. Each block holds one molecule with its values, some of them ahead of it.

Sequences of proteins named here, by UniProt entry; tags and fusion partners are left off. A change or cut given only in a name is not applied to a line headed by its entry. Residues count along the entry.
UniProt O95251: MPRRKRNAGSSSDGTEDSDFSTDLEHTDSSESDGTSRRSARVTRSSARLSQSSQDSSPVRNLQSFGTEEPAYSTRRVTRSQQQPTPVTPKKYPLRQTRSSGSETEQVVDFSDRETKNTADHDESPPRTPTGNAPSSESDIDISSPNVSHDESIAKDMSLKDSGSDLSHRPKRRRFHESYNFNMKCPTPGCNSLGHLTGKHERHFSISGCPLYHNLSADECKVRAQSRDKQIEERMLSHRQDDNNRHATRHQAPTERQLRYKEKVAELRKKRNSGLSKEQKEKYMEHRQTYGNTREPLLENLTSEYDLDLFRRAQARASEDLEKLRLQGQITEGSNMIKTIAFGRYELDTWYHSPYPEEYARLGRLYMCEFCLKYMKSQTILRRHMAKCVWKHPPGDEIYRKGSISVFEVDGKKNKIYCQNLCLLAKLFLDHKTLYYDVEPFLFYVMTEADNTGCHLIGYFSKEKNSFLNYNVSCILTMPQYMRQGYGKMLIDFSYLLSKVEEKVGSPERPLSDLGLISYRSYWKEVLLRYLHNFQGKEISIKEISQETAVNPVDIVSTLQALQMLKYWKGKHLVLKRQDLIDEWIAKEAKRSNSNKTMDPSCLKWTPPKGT
GST-KAT7 (1-170aa): residues 1-170 of O95251
GST-KAT7 (171-329aa): residues 171-329 of O95251
GST-KAT7 (330-611aa): residues 330-611 of O95251

Columns and labels:
[1] = target: T1, HA-PKD1, expressed in HEK293T cells (UniProt Q15139); assay: co-IP; lysates of HEK293T, HeLa or H1299 cells in IP lysis buffer (25 mM Tris-HCl pH 7.4, 150 mM NaCl, 1% NP-40, 1 mM EDTA, 5% glycerol); anti-Flag, anti-HA, anti-KAT7 or anti-PKD1 antibody overnight at 4 °C, protein G-Sepharose; western blot
T1 sequence: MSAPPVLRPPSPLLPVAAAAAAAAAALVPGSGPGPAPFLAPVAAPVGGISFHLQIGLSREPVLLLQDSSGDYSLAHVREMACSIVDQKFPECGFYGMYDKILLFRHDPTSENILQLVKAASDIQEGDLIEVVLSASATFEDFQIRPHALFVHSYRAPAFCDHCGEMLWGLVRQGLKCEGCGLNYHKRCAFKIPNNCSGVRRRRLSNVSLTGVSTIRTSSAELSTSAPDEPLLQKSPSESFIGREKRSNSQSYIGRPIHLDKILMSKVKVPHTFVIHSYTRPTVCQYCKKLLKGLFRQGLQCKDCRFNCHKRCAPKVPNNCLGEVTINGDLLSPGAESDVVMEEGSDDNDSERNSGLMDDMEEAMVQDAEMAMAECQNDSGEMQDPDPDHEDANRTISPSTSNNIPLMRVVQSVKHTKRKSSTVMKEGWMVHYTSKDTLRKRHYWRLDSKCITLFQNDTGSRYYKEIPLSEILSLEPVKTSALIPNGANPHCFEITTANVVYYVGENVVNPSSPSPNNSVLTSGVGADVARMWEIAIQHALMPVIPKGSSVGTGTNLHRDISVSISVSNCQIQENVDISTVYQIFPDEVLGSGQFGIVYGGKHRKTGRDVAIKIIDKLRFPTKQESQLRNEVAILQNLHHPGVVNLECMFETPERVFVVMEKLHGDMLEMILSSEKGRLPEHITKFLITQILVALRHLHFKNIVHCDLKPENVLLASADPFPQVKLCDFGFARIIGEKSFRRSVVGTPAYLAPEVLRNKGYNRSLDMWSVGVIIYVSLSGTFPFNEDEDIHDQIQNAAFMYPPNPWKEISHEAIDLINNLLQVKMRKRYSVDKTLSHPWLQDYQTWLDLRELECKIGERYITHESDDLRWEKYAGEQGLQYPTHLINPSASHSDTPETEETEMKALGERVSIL

[2] = target: T2, FLAG-PKD1, expressed in HeLa cells (UniProt Q15139); assay: as above
T2 sequence: T1 sequence

[3] = target: T3, endogenous PKD1 (human (endogenous in HEK293T, HeLa, H1299)) (UniProt Q15139); assay: as above
T3 sequence: T1 sequence

GST-KAT7 (330-611aa) = GST-KAT7 (330-611aa) (UniProt O95251); assay: pull-down; GST pull-down: GST-KAT7 or its deletion mutants incubated with HEK293T-expressed HA-PKD1; glutathione-sepharose beads
GST-KAT7 (1-170aa) = GST-KAT7 (1-170aa) (UniProt O95251); assay: as above
GST-KAT7 (171-329aa) = GST-KAT7 (171-329aa) (UniProt O95251); assay: as above
GST-KAT7 (full-length) = GST-KAT7 (full-length) (UniProt O95251); assay: as above
[4] = target: FLAG-KAT7, expressed in HEK293T cells (UniProt O95251); assay: co-IP; lysates of HEK293T, HeLa or H1299 cells in IP lysis buffer (25 mM Tris-HCl pH 7.4, 150 mM NaCl, 1% NP-40, 1 mM EDTA, 5% glycerol); anti-Flag, anti-HA, anti-KAT7 or anti-PKD1 antibody overnight at 4 °C, protein G-Sepharose; western blot
[5] = target: endogenous KAT7 (human (endogenous in HEK293T, HeLa, H1299)) (UniProt O95251); assay: as above

binding [1]: binds
Molecule: FLAG-KAT7, expressed in HEK293T cells (from UniProt O95251 1-611) (enzyme)

binding [2]: binds | binding [3]: binds
Molecule: endogenous KAT7 (from UniProt O95251 1-611)

binding (GST-KAT7 (330-611aa)): binds weakly | binding (GST-KAT7 (1-170aa)): no binding | binding (GST-KAT7 (171-329aa)): binds | binding (GST-KAT7 (full-length)): binds | binding [4]: binds
B1: HA-PKD1, expressed in HEK293T cells (enzyme, UniProt Q15139 1-912)
chain: T1 sequence

binding [5]: binds | binding [4]: binds
B2: endogenous PKD1 (enzyme, UniProt Q15139 1-912)
chain: T1 sequence
